In all, about 340,000 compounds went through this assay and about 12,000 (3.5%) were called active. The inconclusive results got no clear call from the source; some entries with a clear call stand among them for comparison. Calls come from the whole dose curve; as a rule, active = well fitted inhibition curve with a large enough effect; inconclusive = small, poorly fitted or top-dose-only effect, or another doubt; inactive = no such curve, though single readings can be large or run the other way. No potency is given beside an inconclusive call; the fits are too rough.
Assay: qHTS Assay for Inhibitors of Hepatitis C Virus (HCV)
Conditions: Huh7.5.1 HCVcc-Cre (HCVcc is cell-culture hepatitis C virus) infection, luciferase reporter, 44 h; series mostly up to 41.8 µM
In short: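 After 44 h co-culture of compound, cells and HCVcc-Cre (~0.5 moi), substrate is added for 15 min at room temperature and luciferase measured over 15 sec. Cells were seeded at 1,000/well and pre-cultured 4 h.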
Potency is the fitted concentration of half-maximal effect; tags give direction and shape of the fitted curve.

Row | Structure (SMILES) | Potency
1 | O=C(NC1CCCC1)C(c1ccccc1)N(Cc1cccnc1)C(=O)Cc1cccs1 (stereo not drawn) | inconclusive [inhibitor, single point]
2 | C=C1C(=O)C23C(O)C1CCC2C12CCCC(C)(COC(C)=O)C1C(O)C3(O)OC2 (stereo not drawn) | active: 3.55 µM
3 | CCOc1cc(CNCc2cccs2)cc(Br)c1OC | inconclusive [inhibitor, single point]
4 | COc1ccccc1N(CC(=O)N/N=C(\C)c1ccccc1O)S(=O)(=O)c1ccc(C)cc1 | active: 10 µM
5 | CCN(Cc1cc2ccccc2[nH]c1=O)S(=O)(=O)c1ccc(OC)cc1 | inconclusive [inhibitor, single point]
6 | O=C1C=C(c2ccc(C(=O)O)c(Cl)c2)C[C@@H](c2ccc3c(c2)OCO3)C1 | inactive
7 | c1ccc2c(N3CCOCC3)nc(-c3ccncc3)nc2c1 | inconclusive [inhibitor, partial curve, poor fit]
8 | Cc1ccc(-c2c(C)sc(NC(=O)C3C4CCC(O4)C3C(=O)O)c2C(=O)OC(C)C)cc1 (stereo not drawn) | inactive
9 | CCCc1ccc(C(C)NC(=S)NCc2ccc(F)cc2)cc1 (stereo not drawn) | inactive
10 | O=C(NC(=S)Nc1ccc(Cc2ccncc2)cc1)c1ccc(F)cc1 | inconclusive [inhibitor, single point]
11 | CCCCOc1ccc(CSC(=N)N)cc1[N+](=O)[O-] | inconclusive [inhibitor, partial curve]
12 | Clc1ccc(-c2nnc(-c3cccc4ccccc34)o2)cc1 | inconclusive [inhibitor, single point]
13 | O=C(Nc1ccc(N2CCOCC2)c(S(=O)(=O)Nc2ccc(Cl)cc2)c1)c1ccc(=O)[nH]n1 | inconclusive [inhibitor, single point]
14 | Cc1ccc(NC(=O)Cn2ncc3c([nH]c4ccccc43)c2=O)cc1Cl | inconclusive [inhibitor, single point]
15 | CSc1nc(-c2ccccc2)nc(NC(=O)c2ccccc2)c1C(C)=O | inconclusive [inhibitor, single point]
16 | O=C1c2cccc3cc([N+](=O)[O-])cc(c23)C(=O)N1/N=C/c1ccc(O)cc1O | inconclusive [inhibitor, single point]
17 | NS(=O)(=O)c1ccc(CCNC(=O)CCc2nc3sc4c(c3c(=O)[nH]2)CCCC4)cc1 | inconclusive [inhibitor, partial curve]
18 | CC1CCN(C(=O)CSc2nnc3c(n2)[nH]c2ccccc23)CC1 | inconclusive [inhibitor, partial curve]
